Test results as given in PubChem BioAssay AID588591 (National Center for Advancing Translational Sciences (NCATS), 2011).
Screen size: about 390,000 compounds; about 4,700 (1.2%) were called active. Inconclusive results, whose numbers are uncertain, are shown with a selection of clear calls. Calls follow the shape of the dose curve; as a rule, active = well fitted inhibition curve with a large enough effect; inconclusive = small, poorly fitted or top-dose-only effect, or another doubt; inactive = no such curve, though single readings can be large or run the other way. A potency beside an inconclusive call is a rough fit, not a confirmed value.

Each compound was assayed against DNA polymerase eta (Homo sapiens) (UniProt Q9Y253) (assay: qHTS for Inhibitors of Polymerase Eta). Conditions: recombinant Pol eta, fluorescent DNA replication assay; series mostly up to 114 µM; activity change, negative = inhibition: at the top concentration.
How it was run: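 Pol eta (10 nM) was preincubated with compounds for 15 min at room temperature, after which fluorescent replication substrate (50 nM final) was added to start the reaction. Fluorescence was read kinetically at 0 and 10 min.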
% is scaled to controls: 0 for no effect and ±100 for the full control effect; potency is read from the fitted curve at half-maximal effect; tags tell the direction and shape of the fitted curve.

Chain of UniProt Q9Y253 (Q9Y253 whole entry, looked up): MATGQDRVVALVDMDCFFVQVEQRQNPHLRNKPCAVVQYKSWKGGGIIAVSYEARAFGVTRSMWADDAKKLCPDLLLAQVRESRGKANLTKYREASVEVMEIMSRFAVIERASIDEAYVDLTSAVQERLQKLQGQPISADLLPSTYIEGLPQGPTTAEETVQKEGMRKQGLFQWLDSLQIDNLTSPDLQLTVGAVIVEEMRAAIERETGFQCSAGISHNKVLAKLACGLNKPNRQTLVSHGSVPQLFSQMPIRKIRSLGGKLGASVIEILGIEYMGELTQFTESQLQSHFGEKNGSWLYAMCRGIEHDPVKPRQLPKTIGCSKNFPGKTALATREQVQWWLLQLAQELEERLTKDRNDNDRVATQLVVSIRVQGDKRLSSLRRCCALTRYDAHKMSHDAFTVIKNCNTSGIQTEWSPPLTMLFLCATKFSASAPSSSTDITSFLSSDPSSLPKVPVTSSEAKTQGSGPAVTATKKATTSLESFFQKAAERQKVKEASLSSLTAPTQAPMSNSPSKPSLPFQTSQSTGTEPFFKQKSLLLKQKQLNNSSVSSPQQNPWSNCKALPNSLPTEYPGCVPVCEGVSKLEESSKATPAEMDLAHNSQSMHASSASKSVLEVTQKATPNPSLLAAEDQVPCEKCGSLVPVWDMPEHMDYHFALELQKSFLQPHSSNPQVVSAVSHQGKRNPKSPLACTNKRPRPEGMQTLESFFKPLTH

Compound | Potency | activity change, negative = inhibition
C=CC(=O)N1C/C(=C/c2ccc(F)cc2)C(=O)/C(=C\c2ccc(F)cc2)C1 | active: 10 µM | 
Cc1ccccc1NS(=O)(=O)c1ccc2[nH]cc(C(=O)N(C)Cc3ccco3)c(=O)c2c1 | active: 8.91 µM | 
CC(C)c1nc2oc3c(N4CCNCC4)ncnc3c2c2c1CCC2 | inconclusive: 89.1 µM [inhibitor, partial curve, poor fit] | 
COC(=O)c1c(Cl)c2n3ccccc3c(C)c(-c3ccccc3)c-2c1C(=O)OC | inconclusive: 12.6 µM [inhibitor, full curve, poor fit] | 
O=C(CN1C(=O)C(=O)N(Cc2ccco2)C1=O)c1c[nH]c2ccccc12 | inconclusive: 15.8 µM [inhibitor, full curve, poor fit] | 
COc1cc(/C=C/C(=O)OCC(=O)c2ccc[nH]2)cc(OC)c1OC | inconclusive: 39.8 µM [inhibitor, partial curve, poor fit] | 
CCOc1ccc(NC(=O)COC(=O)Cc2ccc(S(=O)(=O)N3CCOCC3)s2)cc1 | inconclusive: 89.1 µM [inhibitor, partial curve, poor fit] | 
CCn1cnc2c1c(=O)n(Cc1cccc(Br)c1)c(=O)n2Cc1ccccc1 | inconclusive: 79.4 µM [inhibitor, partial curve, poor fit] | 
Cc1cccc(-n2c(SCc3cc(=O)n4ccsc4n3)nc3ccccc3c2=O)c1 | inconclusive: 39.8 µM [inhibitor, partial curve, poor fit] | 
O=C(O)c1ccc2nc3c(nc2c1)-c1ccccc1C3=O | active: 22.4 µM | 
Cc1cc(/C=C(\C#N)c2nc3ccccc3[nH]2)c(C)n1C | inconclusive: 15.8 µM [inhibitor, full curve, poor fit] | 
Cc1cccc(S(=O)(=O)N2CN(Cc3ccco3)c3nc4ccccc4nc32)c1 | inconclusive: 28.2 µM [inhibitor, partial curve, poor fit] | 
Cc1ccc(CNC(=O)CCn2cc(-c3ccc(C)cc3)nc2CCN)cc1 | inconclusive: 79.4 µM [inhibitor, partial curve, poor fit] | 
O=C1NC(=S)NC(=O)C1=Cc1ccccc1C(=O)O | inconclusive: 14.1 µM [inhibitor, full curve, poor fit] | 
CCOC(=O)c1ccccc1NC(=O)COc1coc(CN2CCc3ccccc32)cc1=O | inconclusive: 14.1 µM [inhibitor, full curve, poor fit] | 
COc1cccc(Nc2ccc3cc(S(=O)(=O)N4CCC(C)CC4)ccc3n2)c1 | inconclusive: 50.1 µM [inhibitor, partial curve, poor fit] | 
O=C(O)c1cccc(Nc2nc(-c3cc4ccccc4oc3=O)cs2)c1 | inconclusive: 31.6 µM [inhibitor, partial curve, poor fit] | 
O=C(Nc1nc(-c2ccccn2)cs1)C1COc2ccccc2O1 (stereo unspecified) |  | inactive: -8.93%
Cc1ccn2cc(CC(=O)O)nc2c1 | active: 14.1 µM | 
COc1ccc2nc(Nc3nc(CSc4nc5ccccc5[nH]4)cc(=O)[nH]3)nc(C)c2c1 | inconclusive: 4.47 µM [inhibitor, full curve] | 
COc1ccccc1N1CCN(C(=O)CSc2ccccc2)CC1 | inconclusive: 39.8 µM [inhibitor, single point] | 
CC(C)Oc1ccccc1C1C=C(C(=O)O)Nc2ncnn21 (stereo unspecified) |  | inactive: -5%

Compound | Potency | activity change, negative = inhibition
O=C1CN(C(=O)COc2ccc(Cl)cc2)C(c2ccccc2)c2cc(Br)ccc2N1 (stereo unspecified) | inconclusive: 39.8 µM [inhibitor, partial curve, poor fit] | 
COC(=O)C(Cc1c[nH]c2ccccc12)NC(=O)c1cccc(S(=O)(=O)N2CCCCC2)c1 (stereo unspecified) |  | inactive: -8.56%
O=C(N/N=C/c1ccco1)c1cccc(N2Cc3ccccc3C2)c1 | active: 7.94 µM | 
O=C(O)c1ccc(N/N=C/c2cc3cc4c(cc3nc2Cl)OCCO4)cc1 | active: 44.7 µM | 
COc1cccc(C(CCc2cc(OC)c(OC)c(OC)c2)NC(C)=O)c1 (stereo unspecified) |  | inactive: -6.4%
NC(=O)CSc1nnc(NC(=O)c2ccc(Br)o2)s1 | active: 20 µM | 
O=C(CC(=O)NN=Cc1ccc2c(c1)CCC2)NN=Cc1ccc2c(c1)CCC2 | inconclusive: 11.2 µM [inhibitor, partial curve, poor fit] | 
Cc1cccc(NC(=O)c2cccc(S(=O)(=O)Nc3c(C)n(C)n(-c4ccccc4)c3=O)c2)c1 | inconclusive: 0.631 µM [inhibitor, full curve, poor fit] | 
COc1ccc(/C=C(/NC(=O)c2cccs2)C(=O)Nc2ccc(C)cc2)cc1OC | inconclusive: 17.8 µM [inhibitor, full curve, poor fit] | 
O=C1C=CC(=O)c2c(O)c(N3CCN(CCOCCO)CC3)c(Br)c(O)c21 | active: 0.794 µM | 
Cc1cc(C(=O)CSc2nnc(N)s2)c(C)n1Cc1cccs1 | inconclusive: 31.6 µM [inhibitor, single point] | 
O=[N+]([O-])c1ccc(NN=Cc2cccc(O)c2)nc1 | inconclusive: 50.1 µM [inhibitor, partial curve, poor fit] | 
CCOC(=O)C1(N(CC)CC)Sc2cc(C)ccc2NC1=O (stereo unspecified) | inconclusive: 35.5 µM [inhibitor, partial curve, poor fit] | 
N/C(=N\OC(=O)c1cccc2ccccc12)c1ccc(Br)cc1 | inconclusive: 100 µM [inhibitor, partial curve, poor fit] | 
Cc1ccc(OCC(=O)Nc2cccc(-c3nc4ccccc4s3)c2)cc1 |  | inactive: -21.2%
O=C(Nc1cccc(S(=O)(=O)N2CCCCC2)c1)c1ccccc1NS(=O)(=O)c1ccc(F)cc1 | inconclusive: 89.1 µM [inhibitor, partial curve, poor fit] | 
CCOC(=O)C1=C(Nc2ccccc2)CSC1 |  | inactive: -15.9%
COc1ccccc1NS(=O)(=O)c1ccc(C(=O)NCC(c2ccco2)N(C)C)cc1 (stereo unspecified) |  | inactive: -1.83%
Cc1cccc(NC(=O)c2ccc3snnc3c2)c1C |  | inactive: -12.6%
COC(=O)CSc1nnc(CCc2nc3ccccc3[nH]2)n1C | inconclusive: 70.8 µM [inhibitor, partial curve, poor fit] | 
Cc1c(C(=O)N2CCNCC2)oc2ccccc12 |  | inactive: -10.5%
O=C(N/N=C/c1ccc([N+](=O)[O-])cc1)c1cccs1 | inconclusive: 79.4 µM [inhibitor, partial curve] | 

Compound | Potency | activity change, negative = inhibition
Cc1cc(/C=N/Nc2ccc([N+](=O)[O-])cn2)c(C)n1-c1cccc(C(=O)O)c1 | active: 22.4 µM | 
FC(F)(F)c1ccccc1CN1CCCC(N2CCN(c3ccccc3)CC2)C1 (stereo unspecified) |  | inactive: -6.33%
COc1ccc2c(c1)CCc1c(C(=O)Nc3c(C)nn(Cc4ccccc4C)c3C)noc1-2 |  | inactive: -15.3%
COc1ccc(S(=O)(=O)Nc2ccccc2C(=O)NCc2ccco2)cc1Br | inconclusive: 17.8 µM [inhibitor, full curve] | 
CC1CC(C)CN(C(=O)COC(=O)/C=C/c2ccco2)C1 (stereo unspecified) | inconclusive: 14.1 µM [inhibitor, partial curve, poor fit] | 
O=C(COC(=O)C1CCN(S(=O)(=O)c2cc([N+](=O)[O-])ccc2Cl)CC1)Nc1ncc(Cl)cc1Cl | active: 8.91 µM | 
Cc1ccccc1NC(=S)N(CCc1c(C)[nH]c2ccc(F)cc12)Cc1cccnc1 | inconclusive: 79.4 µM [inhibitor, partial curve, poor fit] | 
O=C(CSc1nc2ccccc2c(=O)n1-c1ccc(F)cc1F)Nc1ccc(N2CCOCC2)cc1 | inconclusive: 89.1 µM [inhibitor, partial curve, poor fit] | 
CCOc1ccc2nc(Cl)c(C3CC(c4ccc(OC)cc4)=NN3S(C)(=O)=O)cc2c1 (stereo unspecified) | inconclusive: 50.1 µM [inhibitor, partial curve, poor fit] | 
COc1ccc(/C=N/NC(=O)c2ccc(NC(C)=O)cc2)cc1COc1ccc(F)cc1F | inconclusive: 28.2 µM [inhibitor, partial curve, poor fit] | 
O=S(=O)(Nc1ccc(O)c(Sc2nc3ccccc3s2)c1)c1ccc(F)cc1 | inconclusive: 39.8 µM [inhibitor, single point] | 
O=C(CCS(=O)(=O)c1ccccc1)NCCS(=O)(=O)c1ccccc1 | inconclusive: 35.5 µM [inhibitor, partial curve, poor fit] | 
COCCN(C(=O)COC(=O)CC(C)c1ccccc1)c1c(N)n(Cc2ccccc2)c(=O)[nH]c1=O (stereo unspecified) |  | inactive: -3.38%
CC(C)(C)c1ccc(C(=O)NCC(=O)OCC(=O)Nc2nc(-c3ccc(F)cc3)cs2)cc1 | inconclusive: 22.4 µM [inhibitor, partial curve, poor fit] | 
Cc1[nH]c2ccccc2c1/C=N/NC(=O)Cc1cccs1 | inconclusive: 89.1 µM [inhibitor, partial curve, poor fit] | 
Cc1ccnc(N2C(=O)c3ccccc3C2Nc2cccc(C)c2C)c1 (stereo unspecified) |  | inactive: -17.4%
Cc1ccc(S(=O)(=O)N2CCCC2C(=O)OCc2nc3sc(C)c(C)c3c(=O)[nH]2)cc1 (stereo unspecified) |  | inactive: -8.42%
COc1ccc2nc(C)cc(SCC(=O)N/N=C/c3cccc4ccccc34)c2c1 | inconclusive: 79.4 µM [inhibitor, single point] | 
COc1ccc(/C=N/NC(=O)c2ccc(Cn3cc([N+](=O)[O-])cn3)o2)cc1O | inconclusive: 5.01 µM [inhibitor, full curve, poor fit] | 
CCn1c(CN2CCOCC2)nnc1SCC(=O)Nc1ccc(C(C)=O)cc1 |  | inactive: -9.27%
COc1ccc(/C=N/NC(=O)c2c(C)nc3ccc(Br)cn23)cc1OC |  | inactive: -1.06%
O=c1oc(/C=C/c2ccco2)nc2sc3c(c12)CCC3 | inconclusive: 25.1 µM [inhibitor, single point] | 
